Assay results as given in the supplement of paper PMC11417369.
The other results are listed elsewhere or left out.

Test system: PfSIP2 AP2 domain 1 (GST-tagged)
Assay: gcPBM binding intensity (ln(normalized median fluorescence intensity)); higher = stronger DNA binding
Outline: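 Alexa488 anti-GST antibody, scanned at 488 nm, detected GST-tagged P. falciparum DNA-binding domains that had been expressed in E. coli and incubated for 1 h on an Agilent 4 × 180k array. The array carried primer-extended double-stranded 36-bp intergenic genomic probes and negative controls. Binding intensity is the highest Masliner-normalised natural-log median intensity across replicate spots of either orientation of each probe.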

Sequence	gcPBM binding intensity (ln)
ATTTATATAAAGAATGTACACACAGAAATGCACCCA [CACACA_site8715]	11.8
CGTATGCACAAATTATGTACTTATATATATATATAT [XGTACX_site2348]	9.6
AAAAAAAAAAAACATACACACAAATAAATACATACA [CACACA_site6073]	6.98
TAAATATATATATGTGTGCACTTCTTCATTTTAATA [GTGCAC_site9537]	9.97
TTTTGTACAAAAATAATGCACACTATATCAAGTTTT [CACACA_site3595]	7.48
ATATAAAAAGGAAAAAGTACAAAAAAATGTTTGTGA [XGTACX_site8552]	6.82
AAGAAAATATATTCACATGAAGAATTAAAATAAAAC [TGCATGCA_negctrl_site119]	7.14
TATGTGCCAAAACACACACACATATATATATATATA [CACACA_site469]	9.89
TAGGCCTTAAATCGTGTGCACTTTTTTTTTTTTTTT	10.7
CAAATTATTATTTAAGCACACATGTTTATTTTTTTT [CACACA_site2672]	6.68
TTTTTTTTTTTTTTTTTTGGTGAGAGAAGAAAATTC [CACACA_negctrl_site950]	7.02
AAGCATACATCAAGCACACACACACCCACACCCACA [CACACA_site372]	6.98
AAATATATCAATATATATATATATATATATATATAT [XGTACX_negctrl_site544]	9.51
TATGGTAAATACAACACACACACATATGTATTTATA [CACACA_site4666]	7.05
ATTTATTTATATAATACACACAAATATCTTAATTAA [CACACA_site3993]	6.87
TGGATATAAAACAACGTGCACTTGGTTGATTTTAAA [GTGCAC_site9900]	9.82
TGTGCAAGATTTTTCTGTACATATATATAAATATAT [XGTACX_site1796]	8.38
AAATATTCTTGTTTAATACACACTGTAGTATTATAT [CACACA_site433]	7
GAATAAGATAGATATACACACCATTATAAATATAAA [CACACA_site5392]	6.85

Sequence	gcPBM binding intensity (ln)
TTTTGTACTTCATGCGTGCACAGAAATATATTATAT	9.49
GCTAAAAGTATATGCACACACATATATATGCACATA [CACACA_site1635]	9.05
TAAATACTAATATGTACACACATATAGATATAGATT [CACACA_site7247]	6.86
TTAAATAGATAAACTAAACACACAAAAAAAAAAAAA [CACACA_site8308]	6.89
ATTTATATTTGTATTTGTACTTATATTTATATTTAT [XGTACX_site1540]	6.98
GCTTTTGTCATGTGCACACACGTATATATTATATAT [CACACA_site6146]	9.87
AAAAAGGTTAAGGTAGTGCATAATAAAGAATATTAA	9.2
CTATTATAATATTTTACACACCATGTAAAATATATA [CACACA_site3206]	7.09
ATCATTCTTCATTTGTCACACATGATAAAAATATAT [CACACA_site4953]	7.19
CTATTTTGGATGTGTACACATATATATATTTATATT [CACACA_site5706]	7.52
TTTTTTAAGTAATGAAATGATTTTCTTATAGAATAA [GTGCAC_negctrl_site395]	6.8
CATTAACATTTTATTACACACAATAATTTATAAGTA [CACACA_site4083]	7.06
TTTATATATCAATACATTATGTATTAAGTCTTACAT [TGCATGCA_negctrl_site499]	6.86
CAAAAAAAATTATACACACACACACCGATATATATA [CACACA_site4719]	7.48
TTTTAATTAAAAAAATATATAATAAAATTAAATTAT [CACACA_negctrl_site95]	6.84
GGTATATAAAAATATTGTACGAAAATATGCATATAA [XGTACX_site2501]	7.17
TTTTAAAAAAAACAAAAACATTGTCATATGGAAAAT [CACACA_negctrl_site297]	6.85
GTATGTTAATTTAATTGTACAAAAAGATACACTGAT [XGTACX_site5710]	7.28
AAATATAAAAAATATACACACATATAAAATCTATAT [CACACA_site7406]	6.9

Sequence	gcPBM binding intensity (ln)
AGGAACAATATATTTGCACACAAAAAATATATATTT [CACACA_site3316]	7.05
ATGTTAATCATTAAAAATAAAGTTTAATATAAGAAT [XGTACX_negctrl_site155]	6.96
CAAAACAAGCAAAAATGTACTTGATAAATATTTTCT [XGTACX_site1776]	6.82
AACATACCCATATACACACACACATAAATACAGATA [CACACA_site4744]	7.3
ATTTAATTCTTTTGTTATAAAATTTTAGTATATATA [CACACA_negctrl_site1649]	7.06
ATAATAAATGATAGCACACATATGTACATATATACA [CACACA_site864]	7.1
AATACCGGAAAGCAAACACACATTTTAAAACCATAA [CACACA_site3862]	6.97
AAATAAAATAAAAGCACACAAAATGTAAATAATTAT [CACACA_site2775]	6.98
GTATGTAATATTTTAGTGCAAAAAAAAAAAAAAAAA [GTGCAC_site9790]	8.3
AAAGAAATAAAAAAAAGTACACAATTATAAATATAT [XGTACX_site3428]	7.06
CGCGAACATACATACACACACATATTTATATAGGTA [CACACA_site6241]	6.87
AAAATACTTTGAATTTGTACATATAGACATAATATT [XGTACX_site6181]	6.89
TATATATATATAATTTGTACATATATATGTAACAAT [XGTACX_site8728]	9
TTCTGCTACCACTTGAATGTCAATGAAATTAAAAAA [CACACA_negctrl_site1164]	7.61
ACTATAAATATTTATAAACACACAAATATATATATT [CACACA_site7891]	7.39
ATTTATAAAACAGGCACACATATAATAAATTTTATA [CACACA_site2600]	6.94
TAATAATTATTGCACGCACACAAAAACCTATAGATT [CACACA_site2931]	7.36
ATACAATACACCGAACGTACATAAATCTATCTTTTA [XGTACX_site3668]	7.09
ATTTTTTTTTTTACAGTGGAACCATATTTGCTCATT [CACACA_negctrl_site940]	6.86
